The results in this text go back to PMC4336329 (PLoS ONE, 2015).

Out of some 310,000 compounds screened, about 2,200 (0.71%) showed an effect of 50% or more. Effects have a minus sign here. The list shows a part of the results.

Sequence of human ether-à-go-go-related gene (hERG) potassium channel (Q12809 whole entry, looked up): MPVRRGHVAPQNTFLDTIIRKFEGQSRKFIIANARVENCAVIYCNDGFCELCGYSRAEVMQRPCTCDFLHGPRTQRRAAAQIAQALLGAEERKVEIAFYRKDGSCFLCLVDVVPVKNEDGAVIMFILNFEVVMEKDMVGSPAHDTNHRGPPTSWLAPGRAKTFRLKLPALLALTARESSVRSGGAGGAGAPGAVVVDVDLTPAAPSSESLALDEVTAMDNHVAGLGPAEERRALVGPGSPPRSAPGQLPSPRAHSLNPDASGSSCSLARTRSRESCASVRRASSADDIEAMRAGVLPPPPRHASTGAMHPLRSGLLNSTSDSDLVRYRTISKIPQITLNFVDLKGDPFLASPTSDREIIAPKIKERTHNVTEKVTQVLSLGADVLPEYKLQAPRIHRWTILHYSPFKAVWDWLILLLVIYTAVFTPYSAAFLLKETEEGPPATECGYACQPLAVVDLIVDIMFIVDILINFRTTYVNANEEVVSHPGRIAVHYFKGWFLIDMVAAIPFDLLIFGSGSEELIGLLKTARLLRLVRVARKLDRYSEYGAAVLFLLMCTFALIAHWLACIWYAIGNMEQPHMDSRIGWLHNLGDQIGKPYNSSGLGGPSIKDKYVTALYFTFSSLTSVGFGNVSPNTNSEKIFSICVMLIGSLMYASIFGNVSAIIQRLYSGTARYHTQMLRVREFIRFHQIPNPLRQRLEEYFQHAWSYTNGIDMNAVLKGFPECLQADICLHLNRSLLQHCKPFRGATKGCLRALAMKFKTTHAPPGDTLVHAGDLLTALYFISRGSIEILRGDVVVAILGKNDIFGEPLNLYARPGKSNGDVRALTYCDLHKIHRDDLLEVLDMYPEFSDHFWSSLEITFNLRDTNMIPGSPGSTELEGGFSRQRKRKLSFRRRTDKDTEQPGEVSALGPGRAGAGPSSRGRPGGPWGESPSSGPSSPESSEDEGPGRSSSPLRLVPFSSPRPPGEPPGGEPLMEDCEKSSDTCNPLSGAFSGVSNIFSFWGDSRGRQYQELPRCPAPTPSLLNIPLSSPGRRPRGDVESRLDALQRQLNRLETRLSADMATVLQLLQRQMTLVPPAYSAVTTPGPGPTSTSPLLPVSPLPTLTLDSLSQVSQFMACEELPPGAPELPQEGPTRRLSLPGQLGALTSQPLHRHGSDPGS

This test concerns the target human ether-à-go-go-related gene (hERG) potassium channel (human, UniProt Q12809). Nature of the test: primary screen, population patch clamp on CHO cells stably expressing hERG.
Consider `Cc1ccc2oc(=O)c(/C=C(\O)C(C)(C)C)nc2c1`, for which the “hERG current change (%, negative = inhibition) at 1uM” value turned out to be 11.6%. `Cc1ccc(NC2CCCN(C(=O)c3cccs3)C2)cc1C` (stereo not drawn): the “hERG current change (%, negative = inhibition) at 1uM” value came to 11.4%. As for `COC(=O)CN1C(=O)[C@H]2[C@@H](C3CC3)N3C(=O)CN(CCO)C(=O)[C@@]3(Cc3ccccc3)[C@H]2C1=O`, the “hERG current change (%, negative = inhibition) at 1uM” value is given as 9.59%. Turning to `N/C(=N\N=C\c1ccc(O)cc1)c1nonc1N`, the “hERG current change (%, negative = inhibition) at 1uM” value is 11.2%. With `O=C(CN1CCC(C(=O)c2ccc3c(c2)OCCO3)CC1)Nc1ccccc1F`, the “hERG current change (%, negative = inhibition) at 1uM” value amounted to 5.49%. As for `O=C(O)CC(NCc1ccco1)C(=O)Nc1cccc(O)c1` (stereo not drawn), the “hERG current change (%, negative = inhibition) at 1uM” value worked out at 16.9%. For the compound `CC(C)(C)C1CCC(=NNC(=O)CN(c2ccccc2)S(C)(=O)=O)CC1` (stereo not drawn), the “hERG current change (%, negative = inhibition) at 1uM” value was 9.95%. On to `CCOC(=O)N1CCc2c(sc(NC(=O)C3COc4ccccc4O3)c2C(N)=O)C1` (stereo not drawn), for which the “hERG current change (%, negative = inhibition) at 1uM” value is given as 13.6%. Take `CCOC(=O)C1CCCN(Cc2nc(N)nc(Nc3ccc(C)cc3)n2)C1` (stereo not drawn): the “hERG current change (%, negative = inhibition) at 1uM” value was -47.6%. Take `CC(C)(C)NC(=O)Cn1c(Cl)nc2ccccc21`: the “hERG current change (%, negative = inhibition) at 1uM” value was 4.7%. Then `O=C(NCc1cccnc1)c1ccc(COc2ccccc2Br)cc1`, with 16.3%; and `COc1cccc(CN(C)C(=O)Cc2ccc(OC)c(S(=O)(=O)N3CCOCC3)c2)c1`, with -2.85%. Turning to `CCOC(=O)Nc1ccc(S(=O)(=O)NC2CCCCC2)cc1`, the “hERG current change (%, negative = inhibition) at 1uM” value is 11%. For the compound `CC(=O)NNC(=O)CC(=O)Nc1nc(C23CC4CC(CC(C4)C2)C3)cs1`, the “hERG current change (%, negative = inhibition) at 1uM” value is reported as 20.9%. As for `O=C(CN1CCN(c2ccccc2)CC1)Nc1nccs1`, the “hERG current change (%, negative = inhibition) at 1uM” value is 9.36%. Turning to `Cc1ccc(F)c(CNC(=O)C2CCC(=O)N(CCN3CCOCC3)C2)c1F` (stereo not drawn), the “hERG current change (%, negative = inhibition) at 1uM” value is listed as 17.9%. For `O=C(NCCc1csc(-c2ccccc2)n1)c1cccs1` the value was 3.48%; for `O=C(Nc1nnc(SCc2ccccc2)s1)c1cc2c(s1)CCCC2`, 8.74%. Regarding `CC(=O)N(C)c1ccc(NC(=O)Nc2ccccc2C)cc1`, the “hERG current change (%, negative = inhibition) at 1uM” value was found to be 13.4%. With `CC(=O)Nc1cccc(Oc2ncnc3scc(-c4ccccc4)c23)c1`, the “hERG current change (%, negative = inhibition) at 1uM” value worked out at 14.9%.

`Cc1ccc2c(c1)c1ncn(CCC3=CCCCC3)c(=O)c1n2C`: the “hERG current change (%, negative = inhibition) at 1uM” value is reported as 14.7%. On to `O=C(COc1cccc2c1CCN(Cc1ccc(Br)cc1)C2=O)N1CCOCC1`, for which the “hERG current change (%, negative = inhibition) at 1uM” value is on record as -14.7%. Take `O=c1cc(/C=C/c2c(F)cccc2Cl)[nH]c2ccccc12`: the “hERG current change (%, negative = inhibition) at 1uM” value came to 11.4%. For `COc1ccc(C(=O)/C=C/C(=O)N(Cc2ccc(F)cc2)C(C(=O)NC2CCCCC2)c2ccncc2)c(O)c1` (stereo not drawn), the “hERG current change (%, negative = inhibition) at 1uM” value came to 9.43%. Turning to `CCn1nc(C(C)C(=O)O)c2ccccc2c1=O` (stereo not drawn), the “hERG current change (%, negative = inhibition) at 1uM” value turned out to be 11.5%.

Regarding `Cn1cc(C=O)c2ccccc21`, the “hERG current change (%, negative = inhibition) at 1uM” value was determined as 17.6%. As to `C=CCn1c(COc2ccc(Cl)cc2)nnc1SCC(=O)c1c(N)n(C)c(=O)n(C)c1=O`, the “hERG current change (%, negative = inhibition) at 1uM” value is 10.5%. With `Cc1cc(C)n2nc(SCC(=O)N(C(C)C)C(C)C)nc2n1`, the “hERG current change (%, negative = inhibition) at 1uM” value came out at 14.5%. For the compound `N#CC1=C(N)C(C#N)(C#N)C(c2ccc[nH]2)C2CCCC=C12` (stereo not drawn), the “hERG current change (%, negative = inhibition) at 1uM” value was 8.66%. Take `CCN(CC(=O)Nc1ccccc1OC)C(=O)CCOc1ccc(C(C)(C)C)cc1`: the “hERG current change (%, negative = inhibition) at 1uM” value is listed as 0.486%. Take `COc1ccc(-c2oc3ncn4nc(Cc5ccccc5)nc4c3c2-c2ccc(OC)cc2)cc1`: the “hERG current change (%, negative = inhibition) at 1uM” value is reported as 4.54%.

`Cc1cc(O)c(C(C)C)cc1N=Cc1cc([N+](=O)[O-])ccc1O`: the “hERG current change (%, negative = inhibition) at 1uM” value is given as 1.93%. For `N#Cc1c(-c2ccccc2)cc(C2CC2)nc1N` the value was 12%.

As for `CC1CCN(c2ccc(C(=O)O)cc2NS(=O)(=O)c2ccc(Br)cc2)CC1`, the “hERG current change (%, negative = inhibition) at 1uM” value came to 7.03%. For `CC(=O)Nc1nc2ccc(S(=O)(=O)N3CCCCC3)cc2s1` the value was 2.04%; for `CC1(C)CC2(CC(C)(C)NC(=O)N2)NC(=O)N1`, 9.95%. Take `CN(CCc1ccccc1)Cc1ccccc1[N+](=O)[O-]`: the “hERG current change (%, negative = inhibition) at 1uM” value came out at 8.18%. For the compound `COc1ccc(OCC(O)Cn2cnc(-c3ccc(Br)cc3)c2)cc1` (stereo not drawn), the “hERG current change (%, negative = inhibition) at 1uM” value worked out at 14.7%. As for `Cc1cc(NC(=O)CCSc2nc(-c3ccco3)cc(C(F)(F)F)n2)n(-c2ccccc2)n1`, the “hERG current change (%, negative = inhibition) at 1uM” value came to 4.71%. `COc1ccccc1-n1cc(-c2ccc(C)cc2)[nH]c1=S`: the “hERG current change (%, negative = inhibition) at 1uM” value is reported as 12.6%. As to `c1cc(Nc2ncnc3sccc23)cc(-c2nnc3n2CCCCC3)c1`, the “hERG current change (%, negative = inhibition) at 1uM” value amounted to 7.25%. Consider `CSCCC(NC(=O)c1ccc(Cl)cc1)C(=O)OCC(C)=O` (stereo not drawn), for which the “hERG current change (%, negative = inhibition) at 1uM” value was 20.9%. Turning to `O=C(Nc1nnc(SCCC2OCCO2)s1)C1CC(=O)N(c2ccc(F)cc2)C1` (stereo not drawn), the “hERG current change (%, negative = inhibition) at 1uM” value stood at 8.16%. Consider `COc1ccc(NC(=O)/C(C#N)=C/c2cc(C)n(-c3ccc(N4CCOCC4)c([N+](=O)[O-])c3)c2C)cc1`, for which the “hERG current change (%, negative = inhibition) at 1uM” value was 4.07%. Then `O=S(=O)(NCc1csc(-c2cccs2)n1)c1ccccc1`, with 9.16%; and `O=C(CCNC(=O)c1ccccc1Cl)Nc1nc2ccc(F)cc2s1`, with 5.63%. For `O=C(NNc1c(Cl)cc(Cl)cc1Cl)c1cccc([N+](=O)[O-])c1` the value was 14.7%; for `O=C(Nc1ccc(S(=O)(=O)N2CCOCC2)cc1)C1CCN(S(=O)(=O)c2ccccc2)CC1`, 1.78%; for `O=C(COc1ccc(S(=O)(=O)N2CCOCC2)cc1)NC1CC1`, 17.6%.

`COc1ccc(Cl)cc1C(=O)Nc1ccc2c(c1)OCO2`: the “hERG current change (%, negative = inhibition) at 1uM” value stood at 5.64%. As to `N#Cc1ccccc1OCCN1C(=O)c2ccccc2C1=O`, the “hERG current change (%, negative = inhibition) at 1uM” value stood at 8.99%. On to `Cc1cc2c3c(ccc(C)c3n1)N=CN2c1ccccc1`, for which the “hERG current change (%, negative = inhibition) at 1uM” value was -10.8%.

`CCCSc1nnc(Nc2ccccc2C)s1`: the “hERG current change (%, negative = inhibition) at 1uM” value is -2.76%. On to `CCc1ccccc1NC(=O)c1ccc(NS(C)(=O)=O)cc1`, for which the “hERG current change (%, negative = inhibition) at 1uM” value is given as -10.5%. In the case of `COc1ccc(C(=O)N2N=C(c3cccc(NS(C)(=O)=O)c3)CC2c2cccs2)cc1` (stereo not drawn), the “hERG current change (%, negative = inhibition) at 1uM” value is -22.1%. In the case of `CCOC(=O)Cn1c(=NC(=O)c2cc(-c3cccs3)nc3ccccc23)sc2cc(S(N)(=O)=O)ccc21`, the “hERG current change (%, negative = inhibition) at 1uM” value worked out at 17.1%. With `COc1ccc(NC(=O)CN(c2ccccc2)S(=O)(=O)c2ccccc2)c(OC)c1`, the “hERG current change (%, negative = inhibition) at 1uM” value was found to be 3.74%. `CCOc1ccccc1N(C)C(=O)CCS(=O)(=O)c1ccc2c(c1)NC(=O)C(C)S2` (stereo not drawn): the “hERG current change (%, negative = inhibition) at 1uM” value is 6.44%. For `CN(C)CCNC(=O)c1cc2c(s1)-c1ccc(Cl)cc1SC2`, the “hERG current change (%, negative = inhibition) at 1uM” value was -19.8%.

On to `C=CCn1c(=O)c2ccccc2n2c(SCc3csc(-c4ccccc4)n3)nnc12`, for which the “hERG current change (%, negative = inhibition) at 1uM” value is -1.51%. For the compound `CCOC(=O)C1CCN(C(=O)CCCn2nc(C)c3c(C)n(-c4ccc(C)cc4)nc3c2=O)CC1`, the “hERG current change (%, negative = inhibition) at 1uM” value stood at 2.54%. For `CC(=O)c1ccc(NC(=O)c2ccc(CNc3c(N4CCOCC4)c(=O)c3=O)cc2)cc1` the value was 5.01%. For the compound `Cc1ccc(Cl)cc1NC(=O)c1cccc(OC(F)F)c1`, the “hERG current change (%, negative = inhibition) at 1uM” value turned out to be 8.47%. Turning to `CCc1ccc2oc(C(=O)N3CCN(C)CC3)cc(=O)c2c1`, the “hERG current change (%, negative = inhibition) at 1uM” value is reported as -17.8%. As to `CC(C)NC(=O)Cn1cc(C#N)c2cc(Br)ccc21`, the “hERG current change (%, negative = inhibition) at 1uM” value is 7.96%. `CC(=NCCCN1CCOCC1)c1c(O)n(-c2ccccc2C)c(=O)[nH]c1=O`: the “hERG current change (%, negative = inhibition) at 1uM” value worked out at 8.16%. Consider `CCOc1ccc(N(CC(=O)Nc2ccc(C)c(Cl)c2)S(C)(=O)=O)cc1`, for which the “hERG current change (%, negative = inhibition) at 1uM” value came to 10.4%. Turning to `CC(C)OC(=O)c1cccc(C(=O)Oc2ccc(Br)cc2)n1`, the “hERG current change (%, negative = inhibition) at 1uM” value was -1.27%. On to `CS(=O)(=O)N(CC(=O)N/N=C/c1ccc(OCC(=O)N2CCOCC2)cc1)c1ccccc1Cl`, for which the “hERG current change (%, negative = inhibition) at 1uM” value is on record as 1.46%. For `CC(C)SCc1cc(N2CCCC2)nc(-c2ccccc2)n1`, the “hERG current change (%, negative = inhibition) at 1uM” value is on record as 10.6%. For `COCC1CCN(Cc2cn[nH]c2-c2cc(OC)c(OC)c(OC)c2)CC1` the value was -1.36%; for `O=C(O)c1cc([N+](=O)[O-])c(NCCC2=CCCCC2)c([N+](=O)[O-])c1`, 11.1%.

Take `CCN(CC)C(=S)SCC(=O)Nc1cccc(C(F)(F)F)c1`: the “hERG current change (%, negative = inhibition) at 1uM” value worked out at 7.53%.

Turning to `CCCCN(CC)C(=O)CSc1cc(=O)n(C)c2ccccc12`, the “hERG current change (%, negative = inhibition) at 1uM” value was found to be 3.56%. `CCSc1nccc(-c2nn(-c3ccc(C)cc3)ccc2=O)n1`: the “hERG current change (%, negative = inhibition) at 1uM” value is reported as 5.36%. Then `CC1=C/C(=C\C=C(C#N)C#N)N(C)c2ccccc21`, with 11.8%; and `COc1ccc(CCNc2nc3ccccc3n3cnnc23)cc1OC`, with 10.7%; and `CCOC(=O)N1CCN(C(=O)C2CCN(S(=O)(=O)c3ccccc3)CC2)CC1`, with -2.91%.

`Cc1ccc(CS/C(Nc2ccccc2C)=C(\C#N)C(=O)NCc2ccco2)c(C)c1`: the “hERG current change (%, negative = inhibition) at 1uM” value stood at 6.63%. Turning to `CCn1c2ccccc2c2cc(NC(=O)COC(=O)C3CCC(=O)N3)ccc21` (stereo not drawn), the “hERG current change (%, negative = inhibition) at 1uM” value was 2.48%. For `CCn1nnc2cc(C(=O)Nc3cccc(S(=O)(=O)N(C)C)c3)ccc21` the value was 7.54%; for `CCCCCCSc1ccc([C@H]2N[C@@](Cc3ccccc3)(C(=O)OC)[C@H]3C(=O)N(CC)C(=O)[C@@H]23)cc1.O=C(O)C(F)(F)F`, 1.76%. Regarding `Cc1ccccc1OCC(=O)N1CCN(C(=O)COc2ccccc2C)CC1`, the “hERG current change (%, negative = inhibition) at 1uM” value was 10.5%. `Nc1nc(NC(=O)CCC(=O)O)nn1-c1ccccc1`: the “hERG current change (%, negative = inhibition) at 1uM” value is 12.5%. Then `C/C(=N\NC(=O)c1cccc([N+](=O)[O-])c1)c1cccnc1`, with 10.9%. With `O=C(CCc1nnc2n(Cc3ccc(F)cc3)c(=O)c3ccccc3n12)NCCN1CCOCC1`, the “hERG current change (%, negative = inhibition) at 1uM” value is given as 6.1%. In the case of `CCCCNc1cc(Cl)nc(N)n1`, the “hERG current change (%, negative = inhibition) at 1uM” value turned out to be 14.4%.
